The text below walks through data of PMC8985225, “Conserved and divergent features of neuronal CaMKII holoenzyme structure, function, and high-order assembly” (Cell reports, 2021).

A word on the stoichiometry N: it is the number of molecules, sites or subunits per partner or assembly.

Several values for one entry are separate records, joined by “and”; a condition that tells them apart may be missing. Equal entries are not always repeated.

This data set concerns the molecule itself. The data set is described as follows: negative-stain single-particle EM; purified holoenzymes diluted in 50 mM HEPES pH 7.4, 120 mM KCl, 0.5 mM EGTA (~0.35 μM), stained with uranyl formate; basal state; focused reference-free 2D classification of the hub domain (15 nm mask, no symmetry applied); stoichiometry of the holoenzyme.

B1: Ca^2+/CaM-dependent kinase II β (CaMKIIβ) holoenzyme (enzyme)
chain: not shown
notes: CaMKIIβ, rodent, the major splice variant of adult mammalian brain (β, not β', βe, βe' or βM); full-length subunit of the homomeric holoenzyme (N-terminal kinase domain, regulatory domain, ~92-residue linker, C-terminal association/hub domain); No tag is stated; also called β isoform; source: Sf9 cells via baculovirus, purified (phosphocellulose column, then CaM-sepharose column); copies: 12
Take B1: the “stoichiometry N” value was 12 and 14 and 16.
